From the supplement of paper PMC4166925
± gives the standard deviation of the averaged measurements. Whole data set: some 33,000 sequences, median “E-score (dimensionless, -0.5 to 0.5)” near -0.046, cut for the highest 2% near 0.36. The list shows a part of the results.

The sequences below were run on T1, SpTbr T-box DNA-binding domain (GST fusion) (assay: PBM E-score of 8-mer (E-score (dimensionless, -0.5 to 0.5)); Tbr is Tbrain of the sea star Patiria miniata (Pm) or the sea urchin Strongylocentrotus purpuratus (Sp); higher = stronger binding preference; most listed sequences are background and not binding sites). Conditions: the construct has about 5 more residues each side.
T1 sequence: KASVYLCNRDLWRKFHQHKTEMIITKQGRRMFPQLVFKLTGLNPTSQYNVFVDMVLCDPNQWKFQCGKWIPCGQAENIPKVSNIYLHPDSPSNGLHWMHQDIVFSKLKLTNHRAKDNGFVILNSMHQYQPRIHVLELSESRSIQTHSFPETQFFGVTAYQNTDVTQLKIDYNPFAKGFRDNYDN
Outline: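 Each ungapped 8-mer received an enrichment E-score from the Universal PBM Analysis Suite, averaged over duplicate arrays. The proteins were Tbr T-box DNA-binding domains, covering the whole T-box plus about five flanking residues, fused to GST and expressed in BL21 E. coli at 20 °C before glutathione affinity purification. Universal Agilent oligonucleotide arrays were made double-stranded by primer extension and incubated with 200 nM protein in PBS (pH 7.5). The arrays were then scanned and quantified, and every 8-mer was scored from probe intensities.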

Sequence | PBM E-score of 8-mer
AAGTGGCA | 0.338 ± 0.024
GATGCCCC | -0.0507 ± 0.011
CTGCCTCA | 0.057 ± 0.037
GATTAGCA | 0.0309 ± 0.1
TCGCAACA | 0.283 ± 0.0032
ATTGACCA | -0.253 ± 0.027
CGCTAATA | 0.135 ± 0.092
GTTAAACA | 0.0019 ± 0.0036
GCACCCCC | 0.238 ± 0.032
ACCGTGAT | 0.189 ± 0.029
ACCGGGTG | 0.053 ± 0.046
ACCTGACG | 0.218 ± 0.0039
GGGGAACC | -0.174 ± 0.0062
TGGTCACA | 0.252 ± 0.013
CTGACCAA | -0.28 ± 0.0064
AGCAACCT | -0.0355 ± 0.0017
AGCAGTAC | -0.16 ± 0.064
ACCACGTC | 0.0203 ± 0.032
CTCTCGTA | -0.0231 ± 0.063
ACCACATC | 0.0272 ± 0.067
ATGTTGAG | 0.00872 ± 0.024
AACTTTGG | -0.0497 ± 0.0029
GCAATTCC | 0.0755 ± 0.0036
AACAGGTG | 0.364 ± 0.028
CCAAATCG | 0.0669 ± 0.0054

Sequence | PBM E-score of 8-mer
GGGGTACA | -0.26 ± 0.084
ACAATACC | -0.039 ± 0.018
CCTCAGAC | -0.204 ± 0.031
ACCTAATC | -0.0279 ± 0.039
AAAGATAT | 0.0376 ± 0.074
GAATGCCC | -0.162 ± 0.0098
ATGTGGAG | -0.0268 ± 0.17
CACGCCCG | 0.309 ± 0.019
CCAGATTC | -0.108 ± 0.04
TCGCAGCA | 0.101 ± 0.025
GAAACATC | -0.27 ± 0.023
ATTGCGCG | 0.111 ± 0.021
GGAAGCAA | -0.216 ± 0.074
GACACGGC | 0.215 ± 0.041
ATCATTTA | 0.00378 ± 0.029
CATAAGGC | -0.145 ± 0.1
AATACAGT | -0.218 ± 0.019
CTCACGTA | 0.136 ± 0.045
AAGTTTAA | -0.0417 ± 0.0086
AAAGGGTT | -0.219 ± 0.011
CGAACGTC | -0.0242 ± 0.0021
ACATACAA | 0.0194 ± 0.019
GACCTGCA | 0.0202 ± 0.079
AAACCCTG | -0.196 ± 0.037
CACTCGGG | 0.0627 ± 0.043

Sequence | PBM E-score of 8-mer
CCCCAGCG | -0.148 ± 0.02
TACCCCAA | -0.171 ± 0.028
AGGTGCTG | 0.4215 ± 0.0039
AAAATTAG | 0.114 ± 0.057
AACGAGAC | -0.0485 ± 0.1
CATACAAA | -0.165 ± 0.019
CATCCGTC | 0.134 ± 0.057
AGATTGCC | 0.0357 ± 0.058
CGACAATA | 0.149 ± 0.027
TCGCATAA | 0.0493 ± 0.0031
GTGATACA | 0.15 ± 0.021
ATGCCTGA | -0.0882 ± 0.11
ATTAGCCC | -0.179 ± 0.035
CTCCCAAG | -0.152 ± 0.047
GTCCTTCA | -0.144 ± 0.019
AAACTGAA | -0.212 ± 0.088
ACGACCGG | -0.0699 ± 0.0036
AAGGGTTC | -0.299 ± 0.014
ACTTATTG | -0.0815 ± 0.036
ATTATGTG | 0.167 ± 0.057
ATGTCGTC | -0.102 ± 0.031
ACTTCGCC | 0.0093 ± 0.014
CGAGTTCA | 0.11 ± 0.028
AAGGATAC | -0.168 ± 0.066
GGGCCTAA | -0.207 ± 0.025

Sequence | PBM E-score of 8-mer
CCTTTACA | 0.175 ± 0.0068
CCACGATA | 0.0254 ± 0.03
CTCTAATA | -0.254 ± 0.033
ACCTCGTG | 0.232 ± 0.053
AACAGCCA | -0.0169 ± 0.0056
ATTGGAAC | 0.0941 ± 0.034
AATGACCT | -0.138 ± 0.0092
CCATGGAA | -0.245 ± 0.031
GTGTGGAA | 0.3848 ± 0.0012
CTCTGTTA | 0.0595 ± 0.011
CTACATCA | -0.206 ± 0.057
TAGTATCA | -0.00415 ± 0.065
AGGTGATG | 0.3942 ± 0.0033
GAAAGGAA | -0.0545 ± 0.007
GCACTGTA | -0.0342 ± 0.082
CTGACCAG | -0.318 ± 0.053
ATAGACGG | -0.24 ± 0.083
AGCGAGAG | -0.00466 ± 0.01
AGTAGAGG | -0.105 ± 0.033
TAACTGTA | -0.1508 ± 0.00041
AGTTACGC | -0.0254 ± 0.033
GCCACGAC | -0.0111 ± 0.15
AGCCCGCT | -0.12 ± 0.019
CGACCATA | -0.0314 ± 0.02
ATACGTCG | -0.164 ± 0.022

Sequence | PBM E-score of 8-mer
AAAGACAT | -0.233 ± 0.038
TACAAATA | -0.0446 ± 0.062
CGGACCAC | -0.101 ± 0.084
CATTTGTA | -0.134 ± 0.035
AAAGTTAC | -0.117 ± 0.021
AGGGGCAT | -0.28 ± 0.066
GGTATTAA | 0.152 ± 0.016
AGACTGAG | -0.109 ± 0.0076
CGCCTGCA | 0.142 ± 0.0054
ACGGACTG | -0.0424 ± 0.03
CGAACTAA | -0.0861 ± 0.0034
AAAAACCA | 0.0254 ± 0.099
GGAAATCC | -0.0939 ± 0.033
GACGACGA | 0.216 ± 0.032
GCGATAAC | 0.274 ± 0.012
CATGTGAG | 0.137 ± 0.0055
CCGTATGC | -0.198 ± 0.0088
GCGCGACC | 0.313 ± 0.031
GTCCATGA | -0.00899 ± 0.0067
CAGAAGGA | -0.204 ± 0.051
AACCTAAG | -0.133 ± 0.0067
CAGTTAAA | -0.21132 ± 4.2e-05
AGCCCTCG | -0.177 ± 0.04
TTCTTAAA | -0.304 ± 0.023
AACAGATG | -0.0675 ± 0.042

Sequence | PBM E-score of 8-mer
CCCGCAAA | -0.0144 ± 0.072
AAACAAAA | -0.214 ± 0.023
TACCTAGA | -0.0331 ± 0.0053
AACTAGGG | 0.0057 ± 0.046
ACAAAAAA | -0.00374 ± 0.084
CACTGTCA | 0.251 ± 0.045
CTCGCCTA | 0.0209 ± 0.021
CAGGAAAA | -0.0938 ± 0.024
CGCGAGAA | 0.336 ± 0.0049
AAGGACTT | -0.195 ± 0.043
AGCCTCAT | -0.25 ± 0.066
ATCTCATC | -0.0635 ± 0.0016
CGAACCCA | -0.0453 ± 0.073
AAACTCTC | -0.0895 ± 0.034
CATGGTTA | -0.0854 ± 0.073
CTGTACGA | -0.26 ± 0.013
AGTGTGAG | 0.4646 ± 0.0021
CAAATCCA | 0.0313 ± 0.0085
CGCCACCG | 0.229 ± 0.052
AAGGGTCT | -0.265 ± 0.036
CTTGGATA | 0.0416 ± 0.036
ACCAGTAG | -0.2 ± 0.063
ATTGGCGA | 0.196 ± 0.023
GTTTAGGA | -0.269 ± 0.026
AGAGCGGA | -0.143 ± 0.087

Sequence | PBM E-score of 8-mer
AATCACCT | 0.191 ± 0.043
AGCAGAGC | -0.187 ± 0.024
AGGACGTC | -0.291 ± 0.05
ACAATGCC | -0.0739 ± 0.0018
ATAAAGGG | -0.344 ± 0.026
GCCTTGCA | -0.0115 ± 0.044
CCTCTAAA | -0.175 ± 0.013
AGCATCTC | -0.0319 ± 0.011
GCACAAAA | -0.0512 ± 0.072
CACCATCG | 0.216 ± 0.076
ACCCTCTC | 0.127 ± 0.037
CTCGCAAA | 0.0785 ± 0.06
GTCCCTAA | -0.232 ± 0.0042
GACTGTAC | -0.365 ± 0.027
CCTGGGAA | -0.166 ± 0.026
CCGATTCG | -0.0806 ± 0.048
ACGGTCAA | -0.2 ± 0.056
AACGATAA | -0.0326 ± 0.026
CATTACGA | -0.123 ± 0.013
ATAACCCG | -0.0666 ± 0.085
CCTGATCA | -0.0124 ± 0.002
CGTCATCC | 0.0133 ± 0.026
